Measurements as given in the supplement of paper PMC10369915.
The list shows a part of the results. Cut-off read from the data, not from the text of the source: active = 3.2 or more and inactive = the rest. Most of these values are background signal.

Legend:
Experiment in all cases: enrichment score (SH2-bound / input frequency) (ratio); bacterial display of known human phosphotyrosine sites (pTyr-Var adds point mutants) read by sequencing; higher = stronger binding; tyrosines were phosphorylated by kinases first
Conditions in all cases: peptide library: pTyr-Var
SHP2 C-SH2 domain E139D = molecular target: SHP2 C-SH2 domain E139D
[1] = molecular target: SHP2 C-SH2 domain wild-type
SHP2 N-SH2 domain L43F = molecular target: SHP2 N-SH2 domain L43F
SHP2 N-SH2 domain T42A = molecular target: SHP2 N-SH2 domain T42A
SHP2 N-SH2 domain T52S = molecular target: SHP2 N-SH2 domain T52S
[2] = molecular target: SHP2 N-SH2 domain wild-type

Measured: enrichment score
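Note: displayed peptides selected on beads carrying the immobilized SH2 domain, with library peptides lacking any tyrosine serving as negative controls.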

B1: ASS1_Y163_A164P (peptide)
chain: NDLMEYPKQHG
inactive: SHP2 C-SH2 domain E139D 0.687 | [1] 0.748 | SHP2 N-SH2 domain L43F 0.645 | SHP2 N-SH2 domain T42A 0.611 | SHP2 N-SH2 domain T52S 0.732 | [2] 0.664

B2: ASS1_Y291 (peptide)
chain: AGTILYHAHLD
inactive: SHP2 C-SH2 domain E139D 1.62 | [1] 1.39 | SHP2 N-SH2 domain L43F 1.29 | SHP2 N-SH2 domain T42A 1.18 | SHP2 N-SH2 domain T52S 1.54 | [2] 1.54

B3: ASS1_Y291_D296G (peptide)
chain: AGTILYHAHLG
inactive: SHP2 C-SH2 domain E139D 1.47 | [1] 1.96 | SHP2 N-SH2 domain L43F 1.54 | SHP2 N-SH2 domain T42A 1.62 | SHP2 N-SH2 domain T52S 1.58 | [2] 1.46

B4: ASS1_Y291_L290P (peptide)
chain: AGTIPYHAHLD
inactive: SHP2 C-SH2 domain E139D 1.24 | [1] 1.12 | SHP2 N-SH2 domain L43F 1.25 | SHP2 N-SH2 domain T42A 1.06 | SHP2 N-SH2 domain T52S 1.09 | [2] 1.14

B5: ASS1_Y291_Y291S (peptide)
chain: AGTILSHAHLD
inactive: SHP2 C-SH2 domain E139D 1.04 | [1] 0.98 | SHP2 N-SH2 domain L43F 1.05 | SHP2 N-SH2 domain T42A 0.881 | SHP2 N-SH2 domain T52S 1.29 | [2] 1.19

B6: ASS1_Y322 (peptide)
chain: FAELVYTGFWH
inactive: SHP2 C-SH2 domain E139D 1.72 | [1] 1.5 | SHP2 N-SH2 domain L43F 1.41 | SHP2 N-SH2 domain T42A 1.53 | SHP2 N-SH2 domain T52S 1.69 | [2] 1.64

B7: ASS1_Y359_G356V (peptide)
chain: LKVQVYILGRE
inactive: SHP2 C-SH2 domain E139D 1.74 | [1] 1.27 | SHP2 N-SH2 domain L43F 1.87 | SHP2 N-SH2 domain T42A 1.38 | SHP2 N-SH2 domain T52S 2.05 | [2] 1.16

B8: ASS1_Y359_G362V (peptide)
chain: LKGQVYILVRE
inactive: SHP2 C-SH2 domain E139D 0.723 | [1] 0.544 | SHP2 N-SH2 domain L43F 0.728 | SHP2 N-SH2 domain T42A 0.672 | SHP2 N-SH2 domain T52S 0.546 | [2] 0.558

B9: ASS1_Y359_R363Q (peptide)
chain: LKGQVYILGQE
inactive: SHP2 C-SH2 domain E139D 1.28 | [1] 1.15 | SHP2 N-SH2 domain L43F 1.33 | SHP2 N-SH2 domain T42A 1.14 | SHP2 N-SH2 domain T52S 1.35 | [2] 0.965

B10: ASS1_Y359_R363W (peptide)
chain: LKGQVYILGWE
inactive: SHP2 C-SH2 domain E139D 2.37 | [1] 2.53 | SHP2 N-SH2 domain L43F 2.68 | SHP2 N-SH2 domain T42A 2.42 | SHP2 N-SH2 domain T52S 2.98 | [2] 2.83

B11: ASS1_Y359_Y359D (peptide)
chain: LKGQVDILGRE
inactive: SHP2 C-SH2 domain E139D 1.03 | [1] 0.92 | SHP2 N-SH2 domain L43F 1.48 | SHP2 N-SH2 domain T42A 1.12 | SHP2 N-SH2 domain T52S 1.15 | [2] 1.29

B12: ASS1_Y83 (peptide)
chain: QSSALYEDRYL
inactive: SHP2 C-SH2 domain E139D 0.664 | [1] 0.55 | SHP2 N-SH2 domain L43F 0.714 | SHP2 N-SH2 domain T42A 0.686 | SHP2 N-SH2 domain T52S 0.728 | [2] 1.05

B13: ASS1_Y83_R86C (peptide)
chain: QSSALYEDCYL
inactive: SHP2 C-SH2 domain E139D 1.02 | [1] 0.938 | SHP2 N-SH2 domain L43F 0.806 | SHP2 N-SH2 domain T42A 0.847 | SHP2 N-SH2 domain T52S 0.929 | [2] 1.16

B14: ASS1_Y83_R86H (peptide)
chain: QSSALYEDHYL
inactive: SHP2 C-SH2 domain E139D 0.338 | [1] 0.475 | SHP2 N-SH2 domain L43F 0.443 | SHP2 N-SH2 domain T42A 0.388 | SHP2 N-SH2 domain T52S 0.368 | [2] 0.48

B15: ASS1_Y83_YF (peptide)
chain: QSSALYEDRFL
inactive: SHP2 C-SH2 domain E139D 0.676 | [1] 0.881 | SHP2 N-SH2 domain L43F 0.926 | SHP2 N-SH2 domain T42A 0.494 | SHP2 N-SH2 domain T52S 0.593 | [2] 1.1

B16: ASS1_Y87_R86C_YF (peptide)
chain: LFEDCYLLGTS
inactive: SHP2 C-SH2 domain E139D 0.938 | [1] 1.04 | SHP2 N-SH2 domain L43F 0.93 | SHP2 N-SH2 domain T42A 0.862 | SHP2 N-SH2 domain T52S 0.883 | [2] 0.99

B17: ASS1_Y87_T91P (peptide)
chain: LYEDRYLLGPS
inactive: SHP2 C-SH2 domain E139D 0.94 | [1] 0.879 | SHP2 N-SH2 domain L43F 0.777 | SHP2 N-SH2 domain T42A 0.718 | SHP2 N-SH2 domain T52S 1.23 | [2] 0.833

B18: ASS1_Y87_T91P_YF (peptide)
chain: LFEDRYLLGPS
inactive: SHP2 C-SH2 domain E139D 0.859 | [1] 1.04 | SHP2 N-SH2 domain L43F 0.796 | SHP2 N-SH2 domain T42A 0.736 | SHP2 N-SH2 domain T52S 0.91 | [2] 0.712

B19: ATM_Y1915 (peptide)
chain: LAVVDYMRRQK
inactive: SHP2 C-SH2 domain E139D 0.16 | [1] 0.351 | SHP2 N-SH2 domain L43F 0.273 | SHP2 N-SH2 domain T42A 0.284 | SHP2 N-SH2 domain T52S 0.239 | [2] 0.221

B20: ATM_Y1915_V1913G (peptide)
chain: LAVGDYMRRQK
inactive: SHP2 C-SH2 domain E139D 0.348 | [1] 0.27 | SHP2 N-SH2 domain L43F 0.21 | SHP2 N-SH2 domain T42A 0.277 | SHP2 N-SH2 domain T52S 0.277 | [2] 0.401

B21: ATM_Y2019_G2023R (peptide)
chain: EPDSLYGCGRG
inactive: SHP2 C-SH2 domain E139D 0.662 | [1] 0.812 | SHP2 N-SH2 domain L43F 0.634 | SHP2 N-SH2 domain T42A 0.671 | SHP2 N-SH2 domain T52S 0.718 | [2] 0.648

B22: ATM_Y2969 (peptide)
chain: PLKALYLQQRP
inactive: SHP2 C-SH2 domain E139D 1.42 | [1] 1.25 | SHP2 N-SH2 domain L43F 0.811 | SHP2 N-SH2 domain T42A 1.21 | SHP2 N-SH2 domain T52S 1.12 | [2] 1.3

B23: ATM_Y332_R337C (peptide)
chain: GSRGKYSSGFC
inactive: SHP2 C-SH2 domain E139D 1.21 | [1] 1.02 | SHP2 N-SH2 domain L43F 0.96 | SHP2 N-SH2 domain T42A 1.01 | SHP2 N-SH2 domain T52S 1.16 | [2] 0.895

B24: ATM_Y332_S333F (peptide)
chain: GSRGKYFSGFR
inactive: SHP2 C-SH2 domain E139D 0.637 | [1] 0.609 | SHP2 N-SH2 domain L43F 0.57 | SHP2 N-SH2 domain T42A 0.575 | SHP2 N-SH2 domain T52S 0.605 | [2] 0.483

B25: ATM_Y332_Y332C (peptide)
chain: GSRGKCSSGFR
inactive: SHP2 C-SH2 domain E139D 0.698 | [1] 0.703 | SHP2 N-SH2 domain L43F 0.739 | SHP2 N-SH2 domain T42A 0.643 | SHP2 N-SH2 domain T52S 0.659 | [2] 0.592

B26: ATP13A2_Y50 (peptide)
chain: WRVIGYHVVVW
inactive: SHP2 C-SH2 domain E139D 1.9 | [1] 1.97 | SHP2 N-SH2 domain L43F 1.62 | SHP2 N-SH2 domain T42A 1.54 | SHP2 N-SH2 domain T52S 1.71 | [2] 2.04

B27: ATP13A2_Y50_G49S (peptide)
chain: WRVISYHVVVW
inactive: SHP2 C-SH2 domain E139D 2.63 | [1] 2.62 | SHP2 N-SH2 domain L43F 2.01 | SHP2 N-SH2 domain T42A 2.01 | SHP2 N-SH2 domain T52S 2.21 | [2] 1.88

B28: ATP2A2_Y407 (peptide)
chain: VNCHQYDGLVE
inactive: SHP2 C-SH2 domain E139D 0.967 | [1] 0.704 | SHP2 N-SH2 domain L43F 0.837 | SHP2 N-SH2 domain T42A 0.699 | SHP2 N-SH2 domain T52S 0.975 | [2] 0.813

B29: ATP2A2_Y407_E412G (peptide)
chain: VNCHQYDGLVG
inactive: SHP2 C-SH2 domain E139D 0.956 | [1] 0.982 | SHP2 N-SH2 domain L43F 1.06 | SHP2 N-SH2 domain T42A 0.882 | SHP2 N-SH2 domain T52S 1.05 | [2] 1.14

B30: ATP2A2_Y497 (peptide)
chain: KSMSVYCTPNK
inactive: SHP2 C-SH2 domain E139D 0.456 | [1] 0.66 | SHP2 N-SH2 domain L43F 0.636 | SHP2 N-SH2 domain T42A 0.648 | SHP2 N-SH2 domain T52S 0.414 | [2] 0.708

B31: ATP2A2_Y497_S495F (peptide)
chain: KSMFVYCTPNK
inactive: SHP2 C-SH2 domain E139D 0.86 | [1] 0.705 | SHP2 N-SH2 domain L43F 0.623 | SHP2 N-SH2 domain T42A 0.755 | SHP2 N-SH2 domain T52S 0.778 | [2] 0.836

B32: ATP2C1_Y452 (peptide)
chain: IRKAEYPFSSE
inactive: SHP2 C-SH2 domain E139D 0.889 | [1] 0.732 | SHP2 N-SH2 domain L43F 0.858 | SHP2 N-SH2 domain T42A 0.727 | SHP2 N-SH2 domain T52S 0.766 | [2] 0.941

B33: ATP2C1_Y452_A450T (peptide)
chain: IRKTEYPFSSE
inactive: SHP2 C-SH2 domain E139D 1.01 | [1] 1.08 | SHP2 N-SH2 domain L43F 0.96 | SHP2 N-SH2 domain T42A 0.832 | SHP2 N-SH2 domain T52S 0.945 | [2] 0.768

B34: ATP5F1B_Y269_E274Q (peptide)
chain: KVALVYGQMNQ
inactive: SHP2 C-SH2 domain E139D 0.905 | [1] 0.943 | SHP2 N-SH2 domain L43F 1.1 | SHP2 N-SH2 domain T42A 0.809 | SHP2 N-SH2 domain T52S 0.956 | [2] 0.903

B35: ATP6V0A2_Y688 (peptide)
chain: VNRSGYTLIRK
inactive: SHP2 C-SH2 domain E139D 0.439 | [1] 0.345 | SHP2 N-SH2 domain L43F 0.374 | SHP2 N-SH2 domain T42A 0.291 | SHP2 N-SH2 domain T52S 0.537 | [2] 0.308

B36: ATP6V0D2_Y271 (peptide)
chain: NVADHYGVYKP
inactive: SHP2 C-SH2 domain E139D 0.589 | [1] 0.714 | SHP2 N-SH2 domain L43F 0.652 | SHP2 N-SH2 domain T42A 0.629 | SHP2 N-SH2 domain T52S 0.631 | [2] 0.752

B37: ATP6V0D2_Y271_G272R (peptide)
chain: NVADHYRVYKP
inactive: SHP2 C-SH2 domain E139D 0.52 | [1] 0.821 | SHP2 N-SH2 domain L43F 0.716 | SHP2 N-SH2 domain T42A 0.63 | SHP2 N-SH2 domain T52S 0.523 | [2] 0.74
